According to the supplement of paper PMC4604168 (melanoma cell lines):
The other results are listed elsewhere or left out. Most values come without repeats; read them as rough.

Each compound was assayed on RPMI7951 (assay: cell count relative to DMSO control; melanoma cells; higher = more viable cells). Conditions: library dose: standard library concentration; 72 h.
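Note: cells treated in 1,536-well plates, then fixed and DAPI-stained, with nuclei counted from automated high-throughput microscope images.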

| Structure (SMILES) | cell count [%] |
| --- | --- |
| O=C(Nc1cc(C(F)(F)F)cc(C(F)(F)F)c1)c1cc(Cl)ccc1O + Nc1ncn([C@H]2C[C@H](O)[C@@H](CO)O2)c(=O)n1 [decitabine] (first compound 0.08 µM, partner dose 0.5 µM) | 86 |
| O=C(O)[C@@H]1[O][Sb](=[O])([O][Sb]2(=[O])[O][C@H]([C@H](O)CO)[C@H](O)[C@H](C(=O)O)[O]2)[O][C@H]([C@H](O)CO)[C@@H]1O (some centres undefined) [stibogluconate] + N#Cc1c(O)c2c(-c3ccc(-c4ccccc4O)cc3)csc2[nH]c1=O [A769662] (first compound 10 µM, partner dose 10 µM) | 117 |
| O=C(Nc1ccccc1)c1cc([N+](=O)[O-])ccc1Cl + Cc1cc([N+](=O)[O-])ccc1NS(=O)(=O)c1cc(Cl)ccc1Cl [FH535] (first compound 10 µM, partner dose 5 µM) | 70.1 |
| O=C(Nc1cc(C(F)(F)F)cc(C(F)(F)F)c1)c1cc(Cl)ccc1O + Nc1ccn([C@@H]2O[C@H](CO)[C@@H](O)C2(F)F)c(=O)n1 [gemcitabine] (first compound 0.08 µM, partner dose 0.002 µM) | 63.7 |
| O=C(Nc1cc(C(F)(F)F)cc(C(F)(F)F)c1)c1cc(Cl)ccc1O + C=CCn1c(=O)c2cnc(Nc3ccc(N4CCN(C)CC4)cc3)nc2n1-c1cccc(C(C)(C)O)n1 [MK1775] (first compound 0.08 µM, partner dose 0.1 µM) | 78.8 |
| O=C(Nc1cc(C(F)(F)F)cc(C(F)(F)F)c1)c1cc(Cl)ccc1O + CCCCCCCCCCCC1=C(O)C(=O)C=C(O)C1=O [Embelin] (first compound 0.08 µM, partner dose 6 µM) | 109 |
| Cn1nnc2c(C(N)=O)ncn2c1=O [temozolomide] + CCN(CC)CCCCNc1ncc2cc(-c3cc(OC)cc(OC)c3)c(NC(=O)NC(C)(C)C)nc2n1 [PD173074] (first compound 10 µM, partner dose 0.5 µM) | 99.9 |
| O=C(O)[C@@H]1[O][Sb](=[O])([O][Sb]2(=[O])[O][C@H]([C@H](O)CO)[C@H](O)[C@H](C(=O)O)[O]2)[O][C@H]([C@H](O)CO)[C@@H]1O (some centres undefined) [stibogluconate] + Nc1ncn([C@H]2C[C@H](O)[C@@H](CO)O2)c(=O)n1 [decitabine] (first compound 10 µM, partner dose 0.5 µM) | 110 |
| O=C(O)c1ccc2c(c1)nc(Nc1cccc(Cl)c1)c1ccncc12 + C=CCn1c(=O)c2cnc(Nc3ccc(N4CCN(C)CC4)cc3)nc2n1-c1cccc(C(C)(C)O)n1 [MK1775] (first compound 2 µM, partner dose 0.1 µM) | 35.4 |
| O=C(O)c1ccc2c(c1)nc(Nc1cccc(Cl)c1)c1ccncc12 + COc1cc(N2CCC(N3CCN(C)CC3)CC2)ccc1Nc1ncc(Cl)c(Nc2ccccc2S(=O)(=O)C(C)C)n1 [NVP-TAE684] (first compound 2 µM, partner dose 0.4 µM) | 60 |
| O=C(O)c1ccc2c(c1)nc(Nc1cccc(Cl)c1)c1ccncc12 + Cc1cc([N+](=O)[O-])ccc1NS(=O)(=O)c1cc(Cl)ccc1Cl [FH535] (first compound 2 µM, partner dose 5 µM) | 72 |
| O=C(Nc1cc(C(F)(F)F)cc(C(F)(F)F)c1)c1cc(Cl)ccc1O + Cn1c(Nc2ccc(C(F)(F)F)cc2)nc2cc(Oc3ccnc(-c4ncc(C(F)(F)F)[nH]4)c3)ccc21 [CHIR265] (first compound 0.08 µM, partner dose 0.4 µM) | 68 |
| O=C(O)[C@@H]1[O][Sb](=[O])([O][Sb]2(=[O])[O][C@H]([C@H](O)CO)[C@H](O)[C@H](C(=O)O)[O]2)[O][C@H]([C@H](O)CO)[C@@H]1O (some centres undefined) [stibogluconate] + COc1cc2ncnc(Nc3ccc(Oc4ccccc4)cc3)c2cc1OC [SrcI1] (first compound 10 µM, partner dose 10 µM) | 50.1 |
| O=C(O)c1ccc2c(c1)nc(Nc1cccc(Cl)c1)c1ccncc12 + C#Cc1cccc(Nc2ncnc3cc(OCCOC)c(OCCOC)cc23)c1 [erlotinib] (first compound 2 µM, partner dose 4 µM) | 54.8 |
